Measurements published in the supplement of paper PMC12645437, “Orthogonal IMiD-Degron Pairs Induce Selective Protein Degradation in Cells” (ACS Chemical Biology, 2025).
This is one part of the list.

Target: no compound (DMSO)
Experiment: log2 fold change of degron read counts, EGFP-low vs EGFP+ sorted cells; higher = lower degron-EGFP level without compound (poor expression or instability)
Settings: compound: DMSO control; 18 h
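Note: jurkat cells carrying a lentiviral library of mutant zinc finger degrons fused to EGFP plus mCherry, mCherry+ cells FACS sorted, degron abundance counted by next-generation sequencing.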

Sequence | log2 fold change of degron read counts
FNCPQCGAVFTQKGNLLRHIKL | -0.63
FNCEICGHHFTQKGNLLRHIKL | -0.891
FCCEQCGASFTQKGNLLRHIKL | -2.81
FQCEICGAAFTQKGNLLRHIKL | -1.9
LACPICGFKCTQKGNLLRHIKL | 0.79
FWCEICGHTFTQKGNLLRHIKL | -1.38
LKCNQCGFCCTQKGNLLRHIKL | 0.54
FTCSVCGHGFTQKGNLLRHIKL | -0.656
FVCDQCGAWFTQKGNLLRHIKL | -0.12
FRCDICGAPFTQKGNLLRHIKL | -0.286
FKCNQCGANFTQKGNLLRHIKL | -1.49
FHCEQCGATFTQKGNLLRHIKL | -1.75
FACEICGHEFTQKGNLLRHIKL | -1.6
FQCDICGAIFTQKGNLLRHIKL | -0.376
FFCPVCGACFTQKGNLLRHIKL | 0.432
FMCDICGACFTQKGNLLRHIKL | -1.24
FTCDVCGAIFTQKGNLLRHIKL | -1.08
FKCNVCGAFFTQKGNLLRHIKL | -0.0634
FACEICGAPFTQKGNLLRHIKL | -0.552
FLCPICGHHFTQKGNLLRHIKL | 0.0486
FKCNQCGAYFTQKGNLLRHIKL | -0.76
LICPICGFMCTQKGNLLRHIKL | 1.4
FGCPQCGAWFTQKGNLLRHIKL | 0.276
FFCPQCGAIFTQKGNLLRHIKL | 1.28
FLCNQCGHRFTQKGNLLRHIKL | -0.311

Sequence | log2 fold change of degron read counts
LQCNQCGFVCTQKGNLLRHIKL | 0.215
FQCNQCGRCFTQKGNLLRHIKL | -1.02
FNCNQCGAFFTQKGNLLRHIKL | 0.7
FHCEVCGAFFTQKGNLLRHIKL | 0.0174
FKCEQCGAMFTQKGNLLRHIKL | -2.67
FNCNQCGALFTQKGNLLRHIKL | 0.253
FSCEVCGAMFTQKGNLLRHIKL | -1.52
FVCDICGACFTQKGNLLRHIKL | -1.83
FACEICGREFTQKGNLLRHIKL | -2.62
FYCDICGAEFTQKGNLLRHIKL | -2.15
FMCPICGACFTQKGNLLRHIKL | -0.393
LECPICGFECTQKGNLLRHIKL | -0.204
FYCEVCGAEFTQKGNLLRHIKL | -1.84
FLCDICGANFTQKGNLLRHIKL | -0.796
FNCNICGAAFTQKGNLLRHIKL | -0.982
FYCEICGACFTQKGNLLRHIKL | -1.05
FYCEICGHFFTQKGNLLRHIKL | 0.363
FNCDVCGAEFTQKGNLLRHIKL | -2.05
FDCNQCGHAFTQKGNLLRHIKL | 0.279
FDCEICGREFTQKGNLLRHIKL | -1.03
FFCPICGAIFTQKGNLLRHIKL | 0.929
FTCEVCGACFTQKGNLLRHIKL | -1.38
FDCDQCGAMFTQKGNLLRHIKL | -0.0848
FECNVCGAWFTQKGNLLRHIKL | -0.81
FKCNICGAVFTQKGNLLRHIKL | -0.629
